# In the supplement of paper PMC8728848:
# This is one part of the list.
# B1: PX14367A-bth-493-35-493 (Bacteroides thetaiotaomicron) (protein)
# chain: VSSDQVAVAGNAERLFNGAWYNLFEYGTTYANIGYRALQCQDDMMASDVVSRPKYGFNSSYQFNDVAIPSDGRTSFAWYLIYKTIDNCNTAISIKGDSEELRQAQGQALALRAFCYLHLVQHYQFTYLKDKDAPCVPIYTEPTTSGTKPKGKSTVAQVYQQIFDDLNLAQDYLTNYVRKGDGQKFKPNTDVVNGLMARAYLLTGQWGEAAKAAEAARKGYSLMTTTAEYEGFNNISNKEWIWGSPQTLSQSDASYNFYYLDATYVGAYSSFMADPHLMDTFVKGDIRLPLFQWMREGYLGYKKFHMRSDDTADLVLMRSAEMYLIEAEAKVRDGVALDQAVAPLNTLRTARGVGNYDVTGKTKEQVIDEILMERRRELWGEGFGITDVLRNQKAVERMALSEDMQKTEVDCWQEGGSFAKRNPLGHWFLNFPDGKAFSANSSYYLYAIPEKEINANPNL
# Legend:
# Test in all cases: glycan array binding signal (z-score within array); higher = stronger binding
# Conditions in all cases: glycan notation: IUPAC condensed, linker removed
# [1] = target: Fuc(a1-2)Gal(b1-4)GlcNAc(b1-3)Gal(b1-4)GlcNAc(b1-3)Gal(b1-4)GlcNAc
# Summary of the method: (§1)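 Glycan array binding is given as a within-array Z-score, which can be read as non-binding when negative. The arrays, 3228 of them, came from the Consortium for Functional Glycomics database and were retained only where the protein sequence was available. Z-scores were averaged across arrays of the same protein sequence at different concentrations or buffers and across linkers.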
# [2] = target: Fuc(a1-2)Gal(b1-4)GlcNAc(b1-3)GalNAc
# Summary of the method: as §1
# [3] = target: Fuc(a1-2)Gal(b1-4)GlcNAc(b1-3)[Fuc(a1-2)Gal(b1-4)GlcNAc(b1-6)]GalNAc
# Summary of the method: as §1
# [4] = target: Fuc(a1-2)Gal(b1-4)GlcNAc(b1-3)[Fuc(a1-3)[Gal(b1-4)]GlcNAc(b1-6)]Gal(b1-4)Glc
# Summary of the method: as §1
# [5] = target: Fuc(a1-2)Gal(b1-4)GlcNAc(b1-6)GalNAc
# Summary of the method: as §1
# [6] = target: Fuc(a1-2)Gal(b1-4)GlcNAc6S
# Summary of the method: as §1
# [7] = target: Fuc(a1-2)Gal(b1-4)[Fuc(a1-3)]GlcNAc
# Summary of the method: as §1
# [8] = target: Fuc(a1-2)Gal(b1-4)[Fuc(a1-3)]GlcNAc(b1-2)Man(a1-3)[Fuc(a1-2)Gal(b1-4)[Fuc(a1-3)]GlcNAc(b1-2)Man(a1-6)]Man(b1-4)GlcNAc(b1-4)[Fuc(a1-6)]GlcNAc
# Summary of the method: as §1
# [9] = target: Fuc(a1-2)Gal(b1-4)[Fuc(a1-3)]GlcNAc(b1-2)[Fuc(a1-2)Gal(b1-4)[Fuc(a1-3)]GlcNAc(b1-4)]Man(a1-3)[Fuc(a1-2)Gal(b1-4)[Fuc(a1-3)]GlcNAc(b1-2)Man(a1-6)]Man(b1-4)GlcNAc(b1-4)GlcNAc
# Summary of the method: as §1
# [10] = target: Fuc(a1-2)Gal(b1-4)[Fuc(a1-3)]GlcNAc(b1-3)Gal(b1-4)[Fuc(a1-3)]GlcNAc
# Summary of the method: as §1
# [11] = target: Fuc(a1-2)Gal(b1-4)[Fuc(a1-3)]GlcNAc(b1-3)Gal(b1-4)[Fuc(a1-3)]GlcNAc(b1-3)Gal(b1-4)[Fuc(a1-3)]GlcNAc
# Summary of the method: as §1
# [12] = target: Fuc(a1-2)Gal(b1-4)[Fuc(a1-3)]GlcNAc(b1-3)GalNAc
# Summary of the method: as §1
# [13] = target: Fuc(a1-2)Gal(b1-4)[Fuc(a1-3)]GlcNAc(b1-3)[Neu5Ac(a2-6)Gal(b1-4)GlcNAc(b1-6)]Gal(b1-4)Glc
# Summary of the method: as §1
# [14] = target: Fuc(a1-2)Gal3S(b1-4)GlcNAc
# Summary of the method: as §1
# [15] = target: Fuc(a1-2)Gal6S(b1-3)GlcNAc
# Summary of the method: as §1
# [16] = target: Fuc(a1-2)Gal6S(b1-3)GlcNAc6S
# Summary of the method: as §1
# Fuc(a1-2)Gal6S(b1-4)Glc = target: Fuc(a1-2)Gal6S(b1-4)Glc
# Summary of the method: as §1
# [17] = target: Fuc(a1-2)Gal6S(b1-4)Glc6S
# Summary of the method: as §1
# Fuc(a1-2)[Gal(a1-3)]Gal = target: Fuc(a1-2)[Gal(a1-3)]Gal
# Summary of the method: as §1
# [18] = target: Fuc(a1-2)[Gal(a1-3)]Gal(b1-3)GalNAc
# Summary of the method: as §1
# [19] = target: Fuc(a1-2)[Gal(a1-3)]Gal(b1-3)GalNAc(b1-3)Gal(a1-4)Gal(b1-4)Glc
# Summary of the method: as §1
# [20] = target: Fuc(a1-2)[Gal(a1-3)]Gal(b1-3)GlcNAc
# Summary of the method: as §1
# [21] = target: Fuc(a1-2)[Gal(a1-3)]Gal(b1-3)GlcNAc(b1-2)Man(a1-3)[Fuc(a1-2)[Gal(a1-3)]Gal(b1-3)GlcNAc(b1-2)Man(a1-6)]Man(b1-4)GlcNAc(b1-4)GlcNAc
# Summary of the method: as §1
# [22] = target: Fuc(a1-2)[Gal(a1-3)]Gal(b1-3)GlcNAc(b1-2)Man(a1-3)[Fuc(a1-2)[Gal(a1-3)]Gal(b1-3)GlcNAc(b1-2)Man(a1-6)]Man(b1-4)GlcNAc(b1-4)[Fuc(a1-6)]GlcNAc
# Summary of the method: as §1
# [23] = target: Fuc(a1-2)[Gal(a1-3)]Gal(b1-3)GlcNAc(b1-3)GalNAc
# Summary of the method: as §1
# [24] = target: Fuc(a1-2)[Gal(a1-3)]Gal(b1-3)GlcNAc(b1-6)GalNAc
# Summary of the method: as §1
# [25] = target: Fuc(a1-2)[Gal(a1-3)]Gal(b1-4)Glc
# Summary of the method: as §1
# [26] = target: Fuc(a1-2)[Gal(a1-3)]Gal(b1-4)GlcNAc
# Summary of the method: as §1
# [27] = target: Fuc(a1-2)[Gal(a1-3)]Gal(b1-4)GlcNAc(b1-2)Man
# Summary of the method: as §1
# [28] = target: Fuc(a1-2)[Gal(a1-3)]Gal(b1-4)GlcNAc(b1-2)Man(a1-3)[Fuc(a1-2)[Gal(a1-3)]Gal(b1-4)GlcNAc(b1-2)Man(a1-6)]Man(b1-4)GlcNAc(b1-4)GlcNAc
# Summary of the method: as §1
# [29] = target: Fuc(a1-2)[Gal(a1-3)]Gal(b1-4)GlcNAc(b1-2)Man(a1-3)[Fuc(a1-2)[Gal(a1-3)]Gal(b1-4)GlcNAc(b1-2)Man(a1-6)]Man(b1-4)GlcNAc(b1-4)[Fuc(a1-6)]GlcNAc
# Summary of the method: as §1
# [30] = target: Fuc(a1-2)[Gal(a1-3)]Gal(b1-4)GlcNAc(b1-3)GalNAc
# Summary of the method: as §1
# [31] = target: Fuc(a1-2)[Gal(a1-3)]Gal(b1-4)GlcNAc(b1-3)[Fuc(a1-2)[Gal(a1-3)]Gal(b1-4)GlcNAc(b1-6)]GalNAc
# Summary of the method: as §1
# [32] = target: Fuc(a1-2)[Gal(a1-3)]Gal(b1-4)GlcNAc(b1-6)GalNAc
# Summary of the method: as §1
# [33] = target: Fuc(a1-2)[Gal(a1-3)]Gal(b1-4)[Fuc(a1-3)]Glc
# Summary of the method: as §1
# [34] = target: Fuc(a1-2)[Gal(a1-3)]Gal(b1-4)[Fuc(a1-3)]GlcNAc
# Summary of the method: as §1
# [35] = target: Fuc(a1-2)[Gal(a1-3)]Gal(b1-4)[Fuc(a1-3)]GlcNAc(b1-3)GalNAc
# Summary of the method: as §1
# [36] = target: Fuc(a1-2)[Gal(a1-4)]Gal(b1-4)GlcNAc
# Summary of the method: as §1
# [37] = target: Fuc(a1-2)[GalNAc(a1-3)]Gal
# Summary of the method: as §1
# [38] = target: Fuc(a1-2)[GalNAc(a1-3)]Gal(b1-3)GalNAc(a1-3)[Fuc(a1-2)]Gal(b1-4)GlcNAc
# Summary of the method: as §1
# [39] = target: Fuc(a1-2)[GalNAc(a1-3)]Gal(b1-3)GalNAc(b1-3)Gal(a1-4)Gal(b1-4)Glc
# Summary of the method: as §1
# [40] = target: Fuc(a1-2)[GalNAc(a1-3)]Gal(b1-3)GlcNAc
# Summary of the method: as §1
# [41] = target: Fuc(a1-2)[GalNAc(a1-3)]Gal(b1-3)GlcNAc(b1-2)Man(a1-3)[Fuc(a1-2)[GalNAc(a1-3)]Gal(b1-3)GlcNAc(b1-2)Man(a1-6)]Man(b1-4)GlcNAc(b1-4)GlcNAc
# Summary of the method: as §1
# [42] = target: Fuc(a1-2)[GalNAc(a1-3)]Gal(b1-3)GlcNAc(b1-2)Man(a1-3)[Fuc(a1-2)[GalNAc(a1-3)]Gal(b1-3)GlcNAc(b1-2)Man(a1-6)]Man(b1-4)GlcNAc(b1-4)[Fuc(a1-6)]GlcNAc
# Summary of the method: as §1
# [43] = target: Fuc(a1-2)[GalNAc(a1-3)]Gal(b1-3)GlcNAc(b1-3)GalNAc
# Summary of the method: as §1
binder,measurement,setting,value
B1,glycan array binding signal (z-score),[1],-0.456
same,glycan array binding signal (z-score),[2],-0.751
same,glycan array binding signal (z-score),[3],0.211
same,glycan array binding signal (z-score),[4],-0.275
same,glycan array binding signal (z-score),[5],0.215
same,glycan array binding signal (z-score),[6],0.139
same,glycan array binding signal (z-score),[7],-0.053
same,glycan array binding signal (z-score),[8],0.458
same,glycan array binding signal (z-score),[9],0.017
same,glycan array binding signal (z-score),[10],0.321
same,glycan array binding signal (z-score),[11],-0.408
same,glycan array binding signal (z-score),[12],-0.195
same,glycan array binding signal (z-score),[13],-0.686
same,glycan array binding signal (z-score),[14],-0.311
same,glycan array binding signal (z-score),[15],-0.51
same,glycan array binding signal (z-score),[16],0.455
same,glycan array binding signal (z-score),Fuc(a1-2)Gal6S(b1-4)Glc,0.487
same,glycan array binding signal (z-score),[17],-0.358
same,glycan array binding signal (z-score),Fuc(a1-2)[Gal(a1-3)]Gal,-0.53
same,glycan array binding signal (z-score),[18],-0.224
same,glycan array binding signal (z-score),[19],-0.58
same,glycan array binding signal (z-score),[20],-0.071
same,glycan array binding signal (z-score),[21],0.575
same,glycan array binding signal (z-score),[22],-0.284
same,glycan array binding signal (z-score),[23],-0.51
same,glycan array binding signal (z-score),[24],-0.44
same,glycan array binding signal (z-score),[25],-0.315
same,glycan array binding signal (z-score),[26],0.28
same,glycan array binding signal (z-score),[27],0.293
same,glycan array binding signal (z-score),[28],1.26
same,glycan array binding signal (z-score),[29],-0.445
same,glycan array binding signal (z-score),[30],-0.206
same,glycan array binding signal (z-score),[31],-0.31
same,glycan array binding signal (z-score),[32],-0.778
same,glycan array binding signal (z-score),[33],-0.524
same,glycan array binding signal (z-score),[34],-0.374
same,glycan array binding signal (z-score),[35],-0.426
same,glycan array binding signal (z-score),[36],-0.256
same,glycan array binding signal (z-score),[37],-0.542
same,glycan array binding signal (z-score),[38],-0.503
same,glycan array binding signal (z-score),[39],-0.668
same,glycan array binding signal (z-score),[40],-0.371
same,glycan array binding signal (z-score),[41],0.408
same,glycan array binding signal (z-score),[42],-0.109
same,glycan array binding signal (z-score),[43],-0.441
